Test results taken from the antibiotic and cytotoxicity screens of Wong et al. (2023).
Some of the results follow.

How the values were obtained:
HSkMC = human skeletal muscle cells; experiment: cytotoxicity call (relative viability < 0.9); details: 10 µM
HepG2 = experiment: cytotoxicity call (relative viability < 0.9); details: 10 µM
S. aureus RN4220 = experiment: growth inhibition call (relative growth <= 0.2); details: 50 µM

COc1ccc(S(=O)(=O)Nc2ccc3c(c2)C(=O)N([C@H](C)CO)C[C@H](C)[C@@H](CN(C)S(=O)(=O)c2ccccc2)O3)cc1
inactive: cytotoxicity call (HSkMC) | cytotoxicity call (HepG2) | growth inhibition call (S. aureus RN4220)

C[C@@H]1CN([C@@H](C)CO)C(=O)c2cc(NC(=O)C3CCCCC3)ccc2O[C@@H](C)CCCCO[C@H]1CN(C)C(=O)NC1CCCCC1
inactive: cytotoxicity call (HSkMC) | cytotoxicity call (HepG2) | growth inhibition call (S. aureus RN4220)

COc1cccc(S(=O)(=O)N(C)C[C@@H]2Oc3ncc(C#CCC(C)C)cc3C(=O)N([C@H](C)CO)C[C@H]2C)c1
inactive: cytotoxicity call (HSkMC) | cytotoxicity call (HepG2) | growth inhibition call (S. aureus RN4220)

CC(C)NC(=O)[C@@H](C)n1ncn2cccc2c1=O
inactive: cytotoxicity call (HSkMC) | cytotoxicity call (HepG2) | growth inhibition call (S. aureus RN4220)

COCC#Cc1cnc2c(c1)C(=O)N([C@H](C)CO)C[C@H](C)[C@H](CN(C)C(=O)CN1CCOCC1)O2
inactive: cytotoxicity call (HSkMC) | cytotoxicity call (HepG2) | growth inhibition call (S. aureus RN4220)

C[C@@H]1CN([C@H](C)CO)C(=O)c2cc(NS(=O)(=O)c3ccccc3)ccc2O[C@H]1CN(C)Cc1ccc(Oc2ccccc2)cc1
inactive: cytotoxicity call (HSkMC) | cytotoxicity call (HepG2) | growth inhibition call (S. aureus RN4220)

COc1ccc(CN(C)C[C@@H]2OCCCC[C@H](C)Oc3ccc(NC(=O)C4CCCCC4)cc3C(=O)N([C@H](C)CO)C[C@H]2C)cc1
inactive: cytotoxicity call (HSkMC) | cytotoxicity call (HepG2) | growth inhibition call (S. aureus RN4220)

COc1ccc(NC(=O)Nc2cccc3c2O[C@H](CN(C)C(=O)Nc2cccc4ccccc24)[C@@H](C)CN([C@@H](C)CO)C3=O)cc1
inactive: cytotoxicity call (HSkMC) | cytotoxicity call (HepG2) | growth inhibition call (S. aureus RN4220)

COCC(=O)N(C)C[C@H]1Oc2cc(-c3ccc(OC)cc3)ccc2S(=O)(=O)N([C@H](C)CO)C[C@H]1C
inactive: cytotoxicity call (HSkMC) | cytotoxicity call (HepG2) | growth inhibition call (S. aureus RN4220)

CN(C)CC(=O)N[C@H]1C=C[C@@H](CC(=O)NCCN2CCCCC2)O[C@H]1CO
inactive: cytotoxicity call (HSkMC) | cytotoxicity call (HepG2) | growth inhibition call (S. aureus RN4220)

C[C@H]1CN([C@@H](C)CO)C(=O)c2cc(NS(C)(=O)=O)ccc2O[C@H]1CN(C)Cc1ccc2c(c1)OCO2
inactive: cytotoxicity call (HSkMC) | cytotoxicity call (HepG2) | growth inhibition call (S. aureus RN4220)

NC[C@@H](CO)Cc1ccsc1
inactive: cytotoxicity call (HSkMC) | cytotoxicity call (HepG2) | growth inhibition call (S. aureus RN4220)

C[C@H](CO)N1C[C@H](C)[C@@H](CN(C)Cc2ccc(-c3ccccc3)cc2)Oc2c(NC(=O)NC3CCCCC3)cccc2C1=O
inactive: cytotoxicity call (HSkMC) | cytotoxicity call (HepG2) | growth inhibition call (S. aureus RN4220)

C[C@H](O)C#Cc1ccc2c(c1)O[C@H](CN(C)C)[C@H](C)CN([C@H](C)CO)S2(=O)=O
inactive: cytotoxicity call (HSkMC) | cytotoxicity call (HepG2) | growth inhibition call (S. aureus RN4220)

Cc1ccc(S(=O)(=O)N(C)C[C@@H]2Oc3c(NC(=O)c4ccncc4)cccc3C(=O)N([C@H](C)CO)C[C@H]2C)cc1
inactive: cytotoxicity call (HSkMC) | cytotoxicity call (HepG2) | growth inhibition call (S. aureus RN4220)

C[C@@H]1CCCCO[C@H](CN(C)CC2CCCCC2)[C@@H](C)CN([C@H](C)CO)C(=O)c2cc(NC(=O)c3ccccc3)ccc2O1
inactive: cytotoxicity call (HSkMC) | cytotoxicity call (HepG2) | growth inhibition call (S. aureus RN4220)

C[C@@H]1CN([C@H](C)CO)C(=O)c2cc(NC(=O)NC3CCCCC3)ccc2O[C@@H](C)CCCCO[C@@H]1CN(C)CC1CCCCC1
inactive: cytotoxicity call (HSkMC) | cytotoxicity call (HepG2) | growth inhibition call (S. aureus RN4220)

O=C(/C=C/c1ccc(O)c(O)c1)O[C@]1(C(=O)O)C[C@@H](O)[C@H](O)[C@H](O)C1
inactive: cytotoxicity call (HSkMC) | cytotoxicity call (HepG2) | growth inhibition call (S. aureus RN4220)

COCC(=O)Nc1ccc2c(c1)C(=O)N(C)C[C@H](OC)[C@@H](C)CN(Cc1ccccc1F)[C@@H](C)CO2
inactive: cytotoxicity call (HSkMC) | cytotoxicity call (HepG2) | growth inhibition call (S. aureus RN4220)

C[C@H]1CN([C@@H](C)CO)C(=O)c2cc(NC(=O)Nc3cccc4ccccc34)ccc2O[C@H]1CN(C)Cc1ccc(C(=O)O)cc1
inactive: cytotoxicity call (HSkMC) | cytotoxicity call (HepG2) | growth inhibition call (S. aureus RN4220)

CCC/C=C1\OC(=O)c2ccccc21
inactive: cytotoxicity call (HSkMC) | cytotoxicity call (HepG2) | growth inhibition call (S. aureus RN4220)

COc1ccc(NC(=O)N(C)C[C@@H]2OCc3cn(nn3)CCCC(=O)N([C@H](C)CO)C[C@@H]2C)c(OC)c1
inactive: cytotoxicity call (HSkMC) | cytotoxicity call (HepG2) | growth inhibition call (S. aureus RN4220)

C[C@@H]1CN([C@H](C)CO)C(=O)c2cccc(NC(=O)c3nc4ccccc4s3)c2O[C@@H]1CN(C)Cc1ccc(Oc2ccccc2)cc1
inactive: cytotoxicity call (HSkMC) | cytotoxicity call (HepG2) | growth inhibition call (S. aureus RN4220)

COc1ccc(S(=O)(=O)N(C)C[C@H]2Oc3c(NS(=O)(=O)c4c(C)noc4C)cccc3C(=O)N([C@@H](C)CO)C[C@H]2C)cc1
inactive: cytotoxicity call (HSkMC) | cytotoxicity call (HepG2) | growth inhibition call (S. aureus RN4220)

C=CCN(C(=O)[C@H]1N(CCOCCO)C(=O)[C@H]2[C@H](C(=O)O)[C@@H]3C=C[C@@]21O3)c1ccc(OC)cc1
inactive: cytotoxicity call (HSkMC) | cytotoxicity call (HepG2) | growth inhibition call (S. aureus RN4220)

C[C@@H]1CCCCO[C@@H](CN(C)S(=O)(=O)c2ccc(Cl)cc2)[C@@H](C)CN([C@@H](C)CO)C(=O)c2cc(NC(=O)CCC(F)(F)F)ccc2O1
inactive: cytotoxicity call (HSkMC) | cytotoxicity call (HepG2) | growth inhibition call (S. aureus RN4220)

CCCCC/C=C\C/C=C\C/C=C\CCCCCCC(=O)O
inactive: cytotoxicity call (HSkMC) | cytotoxicity call (HepG2) | growth inhibition call (S. aureus RN4220)

COc1ccc(NC(=O)N(C)C[C@H]2OCCCC[C@H](C)Oc3ccc(NC(=O)Nc4ccc5c(c4)OCO5)cc3C(=O)N([C@@H](C)CO)C[C@H]2C)cc1
inactive: cytotoxicity call (HSkMC) | cytotoxicity call (HepG2) | growth inhibition call (S. aureus RN4220)
